43 sequences from the supplement of paper PMC8948288 can be followed below.

The sequences are guide strands of siRNAs; only the seed at positions 2 to 7 varies.

One series relates to H4. Put plainly: cell viability relative to siNT1 (ATP content); H4 human neuroglioma and GL261 mouse glioma; higher = less toxic. The conditions noted are these: siRNA concentration 10 nM; 96 h; human. The protocol: (§1)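 Arrayed screen of all 4096 6mer seeds. Each seed sits at guide-strand positions 2-7 of a neutral 19mer siRNA backbone (siNT1-based, passenger strand 2'-O-methyl modified at positions 1-2 to block RISC loading, 3' DNA overhangs). The guide strand is built here as U + seed + ACAUGUAAACCA. Cells were reverse transfected in triplicate in 384-well plates (H4 at 10 nM, GL261 at 25 nM) with Lipofectamine RNAiMAX. Viability was read as ATP content (CellTiter-Glo) 96 h after transfection and normalised to siNT1 (%).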

The subject of another series is GL261. The series is described as above. The conditions noted are these: siRNA concentration 25 nM; 96 h; mouse. The protocol:
as §1
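Note: cells reverse transfected with siRNA duplexes via lipid reagent, ATP read by luminescence, triplicate wells, values scaled to mean viability with non-targeting control siNT1.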

In general, cell viability refers to a read-out of living cells in per cent, often relative to untreated cells. As to UAAGAACACAUGUAAACCA, the values for the cell viability in the series with H4 and in the series with GL261 were 111% and 20.4%, respectively.
In the same order, the values of UAAGAAGACAUGUAAACCA are 88.9% and 55.3%.
Consider UAAGAAUACAUGUAAACCA, for which the figures for the cell viability in the series with H4 and with GL261 were 79.5% and 69.7%, respectively.
For UAAGACAACAUGUAAACCA, the figures for the cell viability in the series with H4 and with GL261 were 76.3% and 36.6%, respectively.
UAAGACCACAUGUAAACCA: the cell viability turned out to be 80.7% in the series with H4 and 21.6% in the series with GL261.
With UAAGACGACAUGUAAACCA, the cell viability was determined as 116% in the series with H4 and 43.9% with GL261.
In the same order, the values of UAAGACUACAUGUAAACCA are 99.1% and 23.1%.
In the same order, the values of UAAGAGAACAUGUAAACCA are 99.2% and 46.7%.
As for UAAGAGCACAUGUAAACCA, the cell viability with H4 worked out at 73.8%; in the series on GL261 it was 33%.
With UAAGAGGACAUGUAAACCA, the cell viability in the series with H4 was 79.5%; in the series with GL261, 28.9%.
Regarding UAAGAGUACAUGUAAACCA, the cell viability is 105% in the series with H4 and 37.1% in the series with GL261.
Turning to UAAGAUAACAUGUAAACCA, the cell viability with H4 was found to be 122%; in the series with GL261, 50.2%.
Take UAAGAUCACAUGUAAACCA: the cell viability in the series with H4 was 98.5%; in the series with GL261, 64.3%.
As for UAAGAUGACAUGUAAACCA, the figures for the cell viability in the series on H4 and with GL261 were 97.4% and 39.7%, respectively.
For UAAGAUUACAUGUAAACCA, the cell viability in the series on H4 was 122%; with GL261 it was 36.6%.
For the sequence UAAGCAAACAUGUAAACCA, the cell viability was determined as 91.1% in the series on H4 and 48.4% in the series with GL261.
With UAAGCACACAUGUAAACCA, the cell viability with H4 worked out at 72.5%; in the series with GL261 it was 42%.
Take UAAGCAGACAUGUAAACCA: the cell viability with H4 is 107%; with GL261 it was 62.1%.
The matching figures for UAAGCAUACAUGUAAACCA: 97.5% and 52.2%.
Regarding UAAGCCAACAUGUAAACCA, the cell viability in the series with H4 was determined as 97.2%; in the series on GL261, 62.8%.
Regarding UAAGCCCACAUGUAAACCA, the cell viability in the series with H4 worked out at 87.1%; in the series on GL261, 29.6%.
Consider UAAGCCGACAUGUAAACCA, for which the cell viability in the series with H4 is 89.5%; in the series on GL261 it was 46.7%.
In the same order, the values of UAAGCCUACAUGUAAACCA are 81.2% and 46.4%.
Take UAAGCGAACAUGUAAACCA: the cell viability is 104% with H4 and 49.2% in the series with GL261.
For the sequence UAAGCGCACAUGUAAACCA, the cell viability in the series with H4 came to 89.7%; in the series on GL261, 42.5%.
In the same order, the values of UAAGCGGACAUGUAAACCA are 120% and 47.2%.
In the case of UAAGCGUACAUGUAAACCA, the values for the cell viability in the series on H4 and in the series on GL261 were 118% and 53.6%, respectively.
The matching figures for UAAGCUAACAUGUAAACCA: 107% and 54.8%.
Turning to UAAGCUCACAUGUAAACCA, the cell viability in the series on H4 was 125%; in the series on GL261 it was 19.1%.
In the case of UAAGCUGACAUGUAAACCA, the cell viability in the series with H4 was 103%; in the series on GL261, 43.2%.
Turning to UAAGCUUACAUGUAAACCA, the cell viability in the series on H4 was 97.6%; in the series with GL261, 47.8%.
For the sequence UAAGGAAACAUGUAAACCA, the cell viability with H4 amounted to 117%; in the series with GL261, 49.7%.
As for UAAGGACACAUGUAAACCA, the cell viability in the series on H4 turned out to be 40.2%; in the series with GL261, 22.2%.
With UAAGGAGACAUGUAAACCA, the cell viability in the series on H4 came to 97.4%; with GL261 it was 48.8%.
As for UAAGGAUACAUGUAAACCA, the cell viability in the series on H4 worked out at 84.4%; in the series with GL261, 46.9%.
With UAAGGCAACAUGUAAACCA, the cell viability in the series with H4 turned out to be 81.2%; in the series on GL261 it was 50.7%.
The matching figures for UAAGGCCACAUGUAAACCA: 47.7% and 14.4%.
Consider UAAGGCGACAUGUAAACCA, for which the cell viability in the series on H4 was 79.7%; with GL261, 38.9%.
Regarding UAAGGCUACAUGUAAACCA, the results for the cell viability in the series on H4 and in the series on GL261 were 80.5% and 31.1%, respectively.
Take UAAGGGAACAUGUAAACCA: the cell viability came out at 94.2% with H4 and 47.7% in the series on GL261.
With UAAGGGCACAUGUAAACCA, the values for the cell viability in the series with H4 and in the series on GL261 were 38.5% and 15.7%, respectively.
In the same order, the values of UAAGGGGACAUGUAAACCA are 97.5% and 33.5%.
Take UAAGGGUACAUGUAAACCA: the cell viability in the series on H4 amounted to 93.1%; in the series with GL261, 30.3%.
